Test results published in publication PMC4336329 (PLoS ONE, 2015).
Hit rate of the full screen: of about 310,000 compounds, about 2,200 (0.71%) showed an effect of 50% or more. The effect is printed as a negative number. The list shows a part of the results.

The compounds below were run against human ether-à-go-go-related gene (hERG) potassium channel (human, UniProt Q12809) (assay: primary screen, population patch clamp on CHO cells stably expressing hERG).
human ether-à-go-go-related gene (hERG) potassium channel, sequence (Q12809 whole entry, looked up): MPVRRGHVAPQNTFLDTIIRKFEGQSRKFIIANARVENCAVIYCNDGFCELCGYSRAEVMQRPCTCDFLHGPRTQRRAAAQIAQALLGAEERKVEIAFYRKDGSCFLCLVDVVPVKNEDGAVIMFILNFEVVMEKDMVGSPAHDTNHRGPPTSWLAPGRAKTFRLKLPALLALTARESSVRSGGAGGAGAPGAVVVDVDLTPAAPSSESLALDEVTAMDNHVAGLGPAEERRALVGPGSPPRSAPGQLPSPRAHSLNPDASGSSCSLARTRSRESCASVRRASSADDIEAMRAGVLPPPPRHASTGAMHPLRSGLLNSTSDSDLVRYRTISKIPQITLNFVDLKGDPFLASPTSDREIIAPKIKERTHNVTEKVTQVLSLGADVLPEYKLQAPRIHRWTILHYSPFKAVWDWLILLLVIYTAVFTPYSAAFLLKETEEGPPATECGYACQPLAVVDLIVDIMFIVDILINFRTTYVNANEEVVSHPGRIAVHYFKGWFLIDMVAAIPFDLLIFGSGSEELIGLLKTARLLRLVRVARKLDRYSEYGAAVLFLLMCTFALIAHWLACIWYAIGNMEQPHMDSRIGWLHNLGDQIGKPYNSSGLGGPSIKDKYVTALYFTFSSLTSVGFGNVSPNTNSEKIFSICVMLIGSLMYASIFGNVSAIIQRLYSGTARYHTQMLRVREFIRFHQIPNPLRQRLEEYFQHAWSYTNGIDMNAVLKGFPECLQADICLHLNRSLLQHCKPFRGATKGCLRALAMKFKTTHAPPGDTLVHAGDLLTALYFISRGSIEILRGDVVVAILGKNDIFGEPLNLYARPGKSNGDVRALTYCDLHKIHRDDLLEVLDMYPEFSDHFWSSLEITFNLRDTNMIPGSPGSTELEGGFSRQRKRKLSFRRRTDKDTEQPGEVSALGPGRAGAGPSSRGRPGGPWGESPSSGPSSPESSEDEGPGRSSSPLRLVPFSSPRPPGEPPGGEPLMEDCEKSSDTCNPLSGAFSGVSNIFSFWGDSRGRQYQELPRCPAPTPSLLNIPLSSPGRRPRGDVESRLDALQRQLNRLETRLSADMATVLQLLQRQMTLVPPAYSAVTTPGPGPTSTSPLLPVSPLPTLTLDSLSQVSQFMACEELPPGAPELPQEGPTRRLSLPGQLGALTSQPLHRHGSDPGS

Structure (SMILES) | hERG current change (%, negative = inhibition) at 1uM
COc1cc(-c2nc3ccc(C)cn3c2Nc2ccc3c(c2)OCCO3)ccc1O | 13.4%
COc1ccc(S(=O)(=O)N(CCc2ccccc2)CC(=O)O)cc1C | 7.44%
CCOc1ccc(C(=O)N(CC)CC(=O)Nc2ccc3c(c2)OCCO3)cc1 | -4.73%
Cc1cc(=O)n(C)c(=O)n1CCCCCCOc1ccc([N+](=O)[O-])cc1 | -11.1%
Cc1cc(C(=O)NP(=O)(N2CCOCC2)N2CCOCC2)c(C)n1-c1ccc(N(C)C)cc1 | 4.45%
COc1ccc(NC(=O)N[C@@H](CCSC)C(=O)O)cc1Cl | -7.84%
CN(C)c1ccc(S(=O)(=O)N2CCCCC2)cc1NC(=O)C1=NN(c2ccccc2)C(=O)CC1 | 1.1%
Cc1ccc(-c2cc(C(=O)OCn3nnc4ccccc4c3=O)c3ccccc3n2)cc1 | 15.9%
CCOC(=O)C1CCN(C(=O)C2CCN(S(=O)(=O)c3cc(Cl)ccc3OCC)CC2)CC1 | 16.6%
Cc1ccc2[nH]c(=O)c3cc(C(=O)N(C)C4CCCCC4)sc3c2c1 | 21.5%
Cc1nn(-c2ccc(N3CCOCC3)nn2)c(C)c1CCC(=O)Nc1ccccc1 | 8.09%
CC(C)C(NC(=S)Nc1ccccc1)C(=O)O (stereo not shown) | 9.14%
COCCCN(C(=O)Cn1ncc2c(=O)oc3ccc(C)cc3c21)C(C)c1ccncc1 (stereo not shown) | 0.794%
COC(=O)c1ccc(NC(=O)Cn2nnc(-c3cccs3)n2)cc1 | 13.1%
O=C(N/N=C/c1ccc(O)cc1)Nc1cccc2nsnc12 | 12.8%
Cc1c(Cl)cccc1NC(=S)NCc1ccc2c(c1)OCO2 | 7.62%
O=C(CN(C(=O)c1csnn1)c1ccc(Br)cc1)NC1CCCC1 | 5.09%
Oc1ccc(/C=N/Nc2ncnc3c2ncn3Cc2ccccc2)cc1O | 7.4%
Fc1cccc(Cl)c1C1Nc2cccc3cccc(c23)N1 | 6.56%
O=C(N/C(=C\c1ccc(Br)cc1)C(=O)N1CCOCC1)c1ccc([N+](=O)[O-])cc1 | -81.6%
CC(C)(C)NC(=O)CN(Cc1ccc2c(c1)OCO2)C(=O)CNS(=O)(=O)c1ccc(F)cc1 | 12.9%
COC(=O)c1cc2n(n1)CCN(Cc1ccccc1F)C2=O | 5.99%
CC1Cc2ccccc2N1C(=O)Cn1nc(C(=O)O)c2ccccc2c1=O (stereo not shown) | 7.67%
Cc1cc(=O)[nH]c(N/N=C/c2ccc(OC(=O)c3cccnc3)cc2)n1 | 7.54%
CSC(=NC#N)N1CCN(c2ccccn2)CC1 | 8.36%
Cc1ccccc1NC(=O)C1CCC(=O)N1 (stereo not shown) | 10.3%
COc1ccc(C2(C(=O)Nc3ccc(C)cc3)CCOCC2)cc1 | 13.9%
COc1ccc(S(=O)(=O)N2CCC(C(=O)NCCCN3CCOCC3)CC2)cc1 | 0.202%

Structure (SMILES) | hERG current change (%, negative = inhibition) at 1uM
CC(C)CN(C(=O)c1cccc(S(=O)(=O)N2CCN(c3ccc(F)cc3)CC2)c1)C1CCS(=O)(=O)C1 (stereo not shown) | 8.49%
Cc1ccc(Sc2cc(Cl)nc(N)n2)cc1 | 12.1%
CC(=O)Nc1nc2cccc([N+](=O)[O-])c2s1 | 13.4%
O=C(COC(=O)C1=Cc2ccccc2OC1)NCc1ccccc1 | 4.1%
COc1ccc(Cl)cc1NC(=S)N1CCN(S(C)(=O)=O)CC1 | 2.35%
O=C1CC(=O)N(c2ccc(Cl)cc2)C(=O)N1 | 17.1%
O=C(CSc1ccccn1)Nc1ccc2ccccc2c1 | 3.68%
CCCN1CCCc2cc(CN(CCCN3CCOCC3)C(=O)Nc3ccc(OCC)cc3)ccc21 | 0.472%
COc1cccc(NC(=O)C(Sc2nc3ccccc3c(=O)n2CC(C)C)c2ccccc2)c1 (stereo not shown) | 6.46%
OCC[C@H]1C[C@H](O)[C@@H](O)[C@@]2(CCCCO2)O1 | 22%
O=C(Nc1cccc(-c2nc3ncccc3o2)c1)c1ccccc1 | 8.32%
COc1ccc(N2CCN(S(=O)(=O)c3ccc(OC)c(C(=O)N4CCCC4)c3)CC2)cc1 | 11.4%
O=C(NCCc1ccccc1)c1c[nH]c2c(F)cccc2c1=O | 17.6%
CCCn1c(N)c(N(CCOC)C(=O)c2cc3c(s2)CCCCC3)c(=O)[nH]c1=O | 4.22%
COc1ccc(N(C(=O)c2ccccc2)S(=O)(=O)c2cccs2)cc1 | 20.8%
CSCC[C@H](NC(=O)OCc1ccccc1)C(=O)O | 6.64%
COC(=O)CNC(=O)c1cc(OC)cc(OC)c1 | 12.9%
O=C(Cn1nc(Cc2cccnc2)c2ccccc2c1=O)Nc1ccccc1F | 7.93%
CCN(CC)S(=O)(=O)c1cccc(NC(=O)COC(=O)c2cc(=O)c3ccccc3o2)c1 | 7.42%
Cc1cccc(C)c1NC(=O)CNC(=O)c1ccc(COc2ccccc2)cc1 | 10.7%
COc1ccc(N=Nc2nc3cc(Br)c(Br)cc3n2C)c(OC)c1 | 1.6%
O=S(=O)(c1cccnc1)N1CCn2cccc2C1c1ccccc1F (stereo not shown) | 8.59%
COc1ccc(N2CCN(C(=O)CCNC(=O)c3ccc(C(C)(C)C)cc3)CC2)cc1 | 5.7%
Cc1ccc(SCc2c(C(=O)N/N=C/c3ccncc3)nnn2-c2nonc2N)cc1 | 23%
Cc1cc(C)n(-c2ccc(C(=O)Nc3cc(C(F)(F)F)ccc3N3CCOCC3)cc2)n1 | 10.8%
C/C(=N/NC(=O)c1ccc(Br)o1)c1cccc(NC(=O)c2ccc(C)o2)c1 | -58%
CCN(CCO)c1nc(NCc2ccccc2)c2cnn(C)c2n1 | 9.25%
